Measured values: PubChem BioAssay AID493208 (National Center for Advancing Translational Sciences (NCATS), 2011)
The campaign covered roughly 44,000 compounds. About 340 (0.77%) were called active. Another 5% or so got no clear call; they are omitted. Calls come from the whole dose curve; as a rule, active = well fitted inhibition curve with a large enough effect; inconclusive = small, poorly fitted or top-dose-only effect; inactive = flat fitted curve, though single readings scatter. Some of the results follow.

Test: Acumen qHTS Assay for Inhibitors of the mTORC1 Signaling Pathway in MEF (Tsc2-/-, p53-/-) Cells: Sytravon;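 note: plate controls were DMSO for no effect and rapamycin for full effect; nearly all actives have a fitted effect of over 50% in size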
Settings: phospho-rpS6 immunofluorescence/PI, 24 h; series mostly up to 38.3 µM; activity change, negative = inhibition: at the top concentration
Method in brief: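 Read-out: phospho-S6 Alexa-488 intensity over PI intensity per well, scored as % active cells using thresholds from rapamycin (7.5 nM) and DMSO controls. Tsc2-/-, p53-/- MEFs exposed to compound for 24 h; PI cell count recorded as viability.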

Activity change, negative = inhibition, inactive:
CCCn1cc(S(=O)(=O)c2ccc(OC)cc2)c(=O)c2cc(F)c(N3CCCCCC3)cc21 1.44%
CCn1cc(S(=O)(=O)c2ccc(C)cc2C)c(=O)c2cc(F)c(N3CCCC3)cc21 -7.63%
Cc1ccc(CSc2nnc3[nH]c(=O)cc(C)n23)cc1 -5.26%
COc1ccc(CN2CCN(S(=O)(=O)c3ccccc3)CC2)c(OC)c1 -5.2%
CCCN1C(=O)C2(c3ccccc31)c1c(oc3cc(C)c(C)cc3c1=O)C(=O)N2CCCOC (configuration not stated) -2.46%
CCC(=O)N1c2ccccc2CC1C(=O)NCCc1ccc(OC)cc1OC (configuration not stated) 0%
COc1ccc(OC)c(NC(=O)[C@H](Cc2ccccc2)N2Cc3ccccc3C2=O)c1 0.856%
Cc1c(C(=O)Nc2cccc(C(F)(F)F)c2)oc2ccc(S(=O)(=O)N(C)C3CCCCC3)cc12 8.66%
O=C(CC1C(=O)N(c2ccccc2)C(=O)N1CCc1cccs1)Nc1ccc(Cl)cc1 (configuration not stated) 2.12%
CCNC(=O)c1ccc(-n2c(-c3ccccc3)cc3c2CCCCC3)cc1 -2%
COc1cccc(CNC(=O)CCc2c(C)nn(-c3ccc(N4CCOCC4)nn3)c2C)c1 -0.541%
CCOC(=O)CNc1ncnc2c1nnn2C 0.234%
CC(=O)Nc1nonc1-c1nnc(SCc2ccc(C)cc2)n1C -19.1%
CCCNC(=O)c1c2c(nc3ccccc13)C(=O)N(C1CCCCC1)C2 -10.2%
Cc1cccn2c(=O)c(/C=C(\C#N)c3nc4ccccc4n3C)c(Oc3ccc(Cl)cc3)nc12 4.67%
CCCc1cc(=O)[nH]c2nnc(SCC(=O)Nc3cccc(C)c3)n12 1.28%
COc1ccc(OC)c(NC(=O)c2nc(SCc3ccccc3F)ncc2Cl)c1 2.18%
COc1cccc(NC(=O)C2CCCN2S(=O)(=O)c2ccc3c(c2)n(C)c(=O)c(=O)n3C)c1 (configuration not stated) 8.85%
O=C(Cn1c(=O)oc2cc(S(=O)(=O)NCc3ccccc3)ccc21)N(CCO)Cc1ccccc1 0.654%
CCc1cccc(-n2c(=O)c3cccnc3n2CC(=O)Nc2ccccc2C(=O)OC)c1 2.2%
CCC1CN(C(=O)Nc2cc(OC)cc(OC)c2)c2ccccc2S1 (configuration not stated) -0.633%
CCOc1ccc(NC(=O)c2ccc3nc(Cc4ccccc4)oc3c2)cc1 -0.0481%
Cc1ccc2oc(C(=O)Nc3sc4c(c3C(=O)NCc3ccccc3)CCCC4)cc(=O)c2c1 4.77%
Cc1ccc(OCC(=O)OCc2cc(=O)n3c(C)csc3n2)cc1 0.0722%
Cc1ccccc1NC(=O)N1CCC(CN2CCCC2)CC1 -6.51%
COc1ccc(-n2nc3cc(C)c(NC(=O)c4ccc(C)cc4C)cc3n2)cc1Cl 3.15%
N#CC1=C2SCN(C3CCCCC3)CN2C(=O)CC1c1ccc(F)cc1 (configuration not stated) -13.8%
